Data on 58 molecules can be found in PubChem BioAssay AID463173 (ICCB-Longwood Screening Facility, Harvard Medical School, 2010).

Each structure is given as a SMILES string. In all, about 52,000 compounds went through this assay and about 1,700 (3.3%) were called active. No stated cut-off is given here; in the data, active means survival mostly below about 52% (no sharp cut-off); inactive means mostly above about 56%. This is one part of the list.

For this experiment, the system named is Wild type. Nature of the experiment: growth inhibition of S. aureus wild type versus tarO mutant, primary screen, teichoic acid synthesis inhibitors, RN4220, OD600 (AID 463173). Conditions: S. aureus RN4220 wild type/DeltatarO growth, OD600, 18 h, active compounds read low, screened at 18.75 µg/mL (by protocol).
As for `COc1cc(NC(=O)CSc2nc3ccccc3nc2Cc2ccc(Cl)cc2)cc(OC)c1`, the survival was inactive: 127%.
Consider `Cc1nc2c(c(C)c1CCC(=O)NCc1ccccc1)c(=O)n(C)c(=O)n2C`, for which the survival was inactive: 76%.
For `Cc1cccc(NC(=O)C2CCC(CNS(=O)(=O)c3csc(C(N)=O)c3)CC2)c1C` (stereo not drawn) the value was inactive: 71%; for `Cc1ccc(S(=O)(=O)c2nc(S(C)(=O)=O)sc2N(C)Cc2ccccc2)cc1`, inactive: 93%.
The result for `N#Cc1c(N)n(-c2cccc(Cl)c2)c2nc3ccccc3nc12` reads inactive: 109%; that for `COc1cccc(Nc2cc(C)nc3nc(-c4ccc(Cl)cc4)nn23)c1`, inactive: 103%.
For `Cc1nn2c(=O)cc(COc3ccc(/C=C(\C#N)C(=O)Nc4ccc(F)cc4)cc3)nc2s1` the value was inactive: 93%; for `O=C(COc1ccccc1Cl)Nc1nnc(S(=O)(=O)N2CCCCCC2)s1`, inactive: 83%; for `O=C(NCCCc1nc2ccccc2n1Cc1c(F)cccc1Cl)C1CCCCC1`, inactive: 109%.
As to `CCOC(=O)COc1ccccc1C1C(C(=O)OC)=C(C)NC2=C1C(=O)c1ccccc12` (stereo not drawn), the survival was inactive: 70%.
As for `Cc1nn(C)c2c1c(-c1ccccc1)cc(=O)n2CC(=O)Nc1ccccc1C(F)(F)F`, the survival is inactive: 71%.
`C=C(C)Cn1cnc2ccccc21`: the survival was inactive: 107%.
On to `COc1ccc(NCc2cc3cc4c(cc3n(CC(=O)Nc3cc(C)cc(C)c3)c2=O)OCO4)cc1`, for which the survival is inactive: 60%.
For `CCOc1ccc(-n2c(=O)c3c(C)c(C)sc3n(CC(=O)N(CC)Cc3ccccc3)c2=O)cc1`, the survival is inactive: 85%.
For `Cc1ccc(Cl)cc1NC(=O)Cc1ccc(-n2c(C)nc3cccnc32)cc1`, the survival is inactive: 135%.
For `Cc1cn2c(=O)cc(COc3ccc(Cl)cc3)nc2s1`, the survival was inactive: 63%.
The result for `COc1cc(NC(=O)Nc2cccc(-c3noc(C)n3)c2)cc(OC)c1OC` reads inactive: 121%.
As for `COc1ccc2c(c1)CC(C(=O)Nc1cc(Cl)ccc1C)CO2` (stereo not drawn), the survival was inactive: 73%.
On to `CCc1ccc(CNC(=O)C2Cc3cc(S(=O)(=O)N4CCCCCC4)ccc3N2C(C)=O)cc1` (stereo not drawn), for which the survival is inactive: 72%.
For `CCOc1ccc(CNc2nc3nc(C)c(Cc4ccccc4)c(=O)n3[nH]2)cc1` the value was inactive: 94%; for `O=C(O)C(c1ccccc1)N1CCOCC1` (stereo not drawn), inactive: 107%.
For `COc1cc(C2c3c(oc4ccccc4c3=O)C(=O)N2c2ccccn2)cc(OC)c1OC` (stereo not drawn) the value was inactive: 133%.
For `COc1ccc(N(Cc2cccs2)C(=O)c2ccc(OCC(C)C)cc2)cc1` the value was inactive: 113%.
On to `CCCc1nn2c(=O)cc(COC(=O)c3ccccc3NC(=O)c3cccs3)nc2s1`, for which the survival is inactive: 65%.
In the case of `COc1cccc(C2CC(=O)N(c3ccc(F)cc3)C3=C2C(=O)OC3)c1OC` (stereo not drawn), the survival is inactive: 75%.
The result for `Cc1ccc(C)c(C(=O)c2c(N)c(-c3nc(-c4ccc5c(c4)OCO5)cs3)c3ccccn23)c1` reads inactive: 76%.
The result for `Cc1cccc(NC(=O)C2CCC(CNS(=O)(=O)c3ccc(Br)s3)CC2)c1` (stereo not drawn) reads inactive: 64%; that for `COCCNC(=O)c1c[nH]c2ccc(S(=O)(=O)Nc3ccc(F)cc3F)cc2c1=O`, inactive: 82%; that for `Cn1ccc2c(OCC(=O)NCc3ccccc3)cccc2c1=O`, inactive: 73%.
For `COc1ccccc1CNS(=O)(=O)c1ccc(-c2cnc(C3CC3)o2)cc1` the value was inactive: 83%; for `Cc1ccc(N2CC(NC(=O)c3cc4ccccc4o3)CC2=O)cc1C` (stereo not drawn), inactive: 75%.
`O=C(c1cc2ccccc2oc1=O)N(Cc1cccs1)Cc1cccs1`: the survival was inactive: 109%.
`CC(C)c1nn2c(=O)cc(COC(=O)c3cccc(NC(=O)c4cccs4)c3)nc2s1`: the survival was inactive: 84%.
For `CCCOc1ccc(-c2nonc2NC(=O)c2cc(OC)c(OC)c(OC)c2)cc1OCCC` the value was inactive: 120%; for `CCc1ccc(C2=NN(CCC(=O)NCCc3ccc(OC)c(OC)c3)C(=O)CC2)cc1`, inactive: 78%.
With `Cc1ccccc1C(=O)Nc1ccc2nc(SCC(=O)N3CCc4ccccc43)sc2c1`, the survival is inactive: 106%.
The result for `COc1ccc(CNC(=O)c2ccc3c(c2)N(Cc2ccc(C)cc2)CCS3)cc1` reads inactive: 93%; that for `CCc1ccccc1NC(=O)Cn1c(=O)n(-c2ccc(CC(=O)NCC3CCCO3)cc2)c(=O)c2ccccc21` (stereo not drawn), inactive: 97%; that for `COc1ccc(CSc2nc3ccncc3n2CC(=O)Nc2ccc(C)c(F)c2)cc1`, inactive: 76%.
Take `CC(C)=NOC1=NS(=O)(=O)c2ccccc21`: the survival is inactive: 101%.
Consider `CCOC(=O)c1cnc2nc(NCc3cccc(Br)c3)[nH]n2c1=O`, for which the survival is inactive: 98%.
The result for `Cc1cc(C)cc(NC(=O)C2CCCN2S(=O)(=O)c2ccc3c(c2)CCCC(=O)N3)c1` (stereo not drawn) reads inactive: 84%.
The result for `COc1ccc(CCNC(=O)CCS(=O)(=O)c2cc(Br)cc3c2N(C(C)=O)CC3)cc1OC` reads inactive: 63%.
The result for `Cc1cc(C)cc(-n2ccn(Cc3ccccc3C)c(=O)c2=O)c1` reads inactive: 86%; that for `COc1ccccc1CNC(=O)CC(c1ccc(C)cc1)N1Cc2ccccc2C1=O` (stereo not drawn), inactive: 60%.
For the molecule `Cc1ccc(CNC(=O)C2COc3ccccc3C2)cc1` (stereo not drawn), the survival is inactive: 121%.
For `COc1ccc2c(c1)Cc1sc(NC(=O)c3cccc(C)c3)nc1-2` the value was active: 7%.
As for `O=C(CCC1CCCC1)NCc1ccco1`, the survival was inactive: 120%.
Turning to `Cc1nc(C)c(C(=O)O)o1`, the survival is inactive: 110%.
For `COC(=O)CSc1nc2sc3c(c2c(=O)n1-c1ccccc1C)CC(C)(C)OC3` the value was inactive: 95%; for `Clc1ccc(-c2nc3c4cnn(-c5ccccc5Br)c4ncn3n2)c(Cl)c1`, inactive: 86%.
In the case of `Cc1oc(-c2ccc(C(=O)NCCC(C)C)cc2)nc1CN1CCc2ccccc21`, the survival was inactive: 78%.
For `CCc1ccc(NS(=O)(=O)c2cc(-c3cnc(C4CC4)o3)ccc2C)cc1`, the survival was inactive: 136%.
The result for `Cc1ccc(OCC(=O)OC2=C(C(=O)c3ccccc3)N(C)S(=O)(=O)c3ccccc32)cc1` reads inactive: 72%; that for `Cc1ccccc1NC(=O)c1sc2nc3n(c(=O)c2c1C)CCC3`, inactive: 84%.
For the molecule `O=S(=O)(Nc1cccc(C(F)(F)F)c1)c1ccc(-c2cnc(C3CC3)o2)cc1`, the survival is inactive: 77%.
`CN1C(=O)/C(=C\C2(C)N3CC4(C)CN2CC(C)(C3)C4=O)c2ccccc21` (stereo not drawn): the survival was inactive: 111%.
The result for `Cc1nonc1OCCN1CCN(c2cnn(-c3ccccc3)c(=O)c2Cl)CC1` reads inactive: 114%.
